The values below come from the supplement of paper PMC8728848.

Experiment in all cases: glycan array binding signal (z-score within array); higher = stronger binding
Details in all cases: glycan notation: IUPAC condensed, linker removed

In assay [1] the target is GlcNAc(a1-4)Gal(b1-4)GlcNAc(b1-3)Gal(b1-4)Glc. The essentials: (§1)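 Arrays were curated from the Consortium for Functional Glycomics database, 3228 in total, and kept only where the protein sequence was available. Binding is expressed as a within-array Z-score. This score was averaged across arrays of the same protein sequence at different concentrations or buffers and across linkers, and negative values can be read as non-binding.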

Assay [2] has as its target GlcNAc(a1-4)Gal(b1-4)GlcNAc(b1-3)Gal(b1-4)GlcNAc. A digest of the protocol: as §1
In assay [3] the target is GlcNAc(a1-4)Gal(b1-4)GlcNAc(b1-3)Gal(b1-4)GlcNAc(b1-3)Gal(b1-4)GlcNAc. The essentials:
as §1

In assay [4] the target is GlcNAc(a1-4)Gal(b1-4)GlcNAc(b1-3)Gal(b1-4)[Fuc(a1-3)]GlcNAc(b1-3)Gal(b1-4)[Fuc(a1-3)]GlcNAc. The essentials: as §1
Assay [5] addresses GlcNAc(a1-6)Gal(b1-4)GlcNAc. The essentials: as §1
The target of assay [6] is GlcNAc(b1-2)Gal(b1-3)GalNAc. The essentials:
as §1

In assay [7] the target is GlcNAc(b1-2)Man(a1-3)[GlcNAc(b1-2)Man(a1-6)]Man(b1-4)GlcNAc(b1-4)GlcNAc. The essentials:
as §1

The target of assay [8] is GlcNAc(b1-2)Man(a1-3)[GlcNAc(b1-2)Man(a1-6)]Man(b1-4)GlcNAc(b1-4)[Fuc(a1-6)]GlcNAc. The essentials:
as §1

The target in assay [9] is GlcNAc(b1-2)Man(a1-3)[GlcNAc(b1-4)][GlcNAc(b1-2)Man(a1-6)]Man(b1-4)GlcNAc(b1-4)GlcNAc. The essentials: as §1
Assay [10] has as its target GlcNAc(b1-2)Man(a1-3)[GlcNAc(b1-4)][GlcNAc(b1-2)Man(a1-6)]Man(b1-4)GlcNAc(b1-4)[Fuc(a1-6)]GlcNAc. The essentials:
as §1

The target of assay [11] is GlcNAc(b1-2)[GlcNAc(b1-4)]Man(a1-3)[GlcNAc(b1-2)Man(a1-6)]Man(b1-4)GlcNAc(b1-4)GlcNAc. A digest of the protocol: as §1
The target in assay [12] is GlcNAc(b1-2)[GlcNAc(b1-4)]Man(a1-3)[GlcNAc(b1-4)][GlcNAc(b1-2)Man(a1-6)]Man(b1-4)GlcNAc(b1-4)GlcNAc. A digest of the protocol: as §1
Assay [13] concerns the target GlcNAc(b1-2)[GlcNAc(b1-4)]Man(a1-3)[GlcNAc(b1-4)][GlcNAc(b1-2)[GlcNAc(b1-6)]Man(a1-6)]Man(b1-4)GlcNAc(b1-4)GlcNAc. The essentials:
as §1

Assay [14] concerns the target GlcNAc(b1-2)[GlcNAc(b1-4)]Man(a1-3)[GlcNAc(b1-4)][GlcNAc(b1-2)[GlcNAc(b1-6)]Man(a1-6)]Man(b1-4)GlcNAc(b1-4)[Fuc(a1-6)]GlcNAc. A digest of the protocol: as §1
In assay [15] the target is GlcNAc(b1-2)[GlcNAc(b1-6)]Man(a1-6)[GlcNAc(b1-2)Man(a1-3)]Man(b1-4)GlcNAc(b1-4)GlcNAc. The essentials:
as §1

The target in assay [16] is GlcNAc(b1-2)[GlcNAc(b1-6)]Man(a1-6)[GlcNAc(b1-2)Man(a1-3)]Man(b1-4)GlcNAc(b1-4)[Fuc(a1-6)]GlcNAc. The essentials: as §1
In assay [17] the target is GlcNAc(b1-2)[GlcNAc(b1-6)]Man(a1-6)[GlcNAc(b1-2)Man(a1-3)][GlcNAc(b1-4)]Man(b1-4)GlcNAc(b1-4)GlcNAc. A digest of the protocol:
as §1

Assay [18] has as its target GlcNAc(b1-2)[GlcNAc(b1-6)]Man(a1-6)[GlcNAc(b1-4)][GlcNAc(b1-2)Man(a1-3)]Man(b1-4)GlcNAc(b1-4)GlcNAc. A digest of the protocol: as §1

Some of the results follow.

B1: Siglec-7-SA-PE-180 (Homo sapiens), Q9Y286 (protein)
chain: MLLLLLLPLLWGRERVEGQKSNRKDYSLTMQSSVTVQEGMCVHVRCSFSYPVDSQTDSDPVHGYWFRAGNDISWKAPVATNNPAWAVQEETRDRFHLLGDPQTKNCTLSIRDARMSDAGRYFFRMEKGNIKWNYKYDQLSVNVTALTHRPNILIPGTLESGCFQNLTCSVPWACEQGTPPMISWMGTSVSPLHPSTTRSSVLTLIPQPQHHGTSLTCQVTLPGAGVTTNRTIQLNVSYPPQNLTVTVFQGEGTASTALGNSSSLSVLEGQSLRLVCAVDSNPPARLSWTWRSLTLYPSQPSNPLVLELQVHLGDEGEFTCRAQNSLGSQHVSLNLSLQQEYTGKMRPVSGVLLGAVGGAGATALVFLSFCVIFIVVRSCRKKSARPAADVGDIGMKDANTIRGSASQGNLTESWADDNPRHHGLAAHSSGEEREIQYAPLSFHKGEPQDLSGQEATNNEYSEIKIPK
As for B1, the “glycan array binding signal (z-score)” value in assay [1] was -0.326; in assay [2] it was -0.387; in assay [3] it was -0.297; in assay [4], 0.22; in assay [5], -0.299; in assay [6], -0.03. The “glycan array binding signal (z-score)” value was -0.294 in assay [7]; -0.172 in assay [8]; -0.385 in [9]; -0.618 in assay [10]; -0.272 in [11]; -0.191 in [12]. Also, the “glycan array binding signal (z-score)” value in [13] is -0.408; in [14] it was -0.13; in assay [15], -0.074; in [16] it was 0.01; in [17] it was -0.355; in [18] it was -0.312.
